According to PubChem BioAssay AID1346428 (National Center for Advancing Translational Sciences (NCATS), 2018):
The whole screen tested about 48,000 compounds, of which about 1,200 (2.5%) were called active. Not shown: some 2% with an inconclusive outcome.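 How the source made its calls: active means activation of at least 60% and not above a set upper limit (about 1 call in 100 departs from these limits); inconclusive means activation of 40% to 60%, or above that upper limit; inactive means activation under 40%.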 Some of the results follow.

These compounds were tested against Probable G-protein coupled receptor 32 (Homo sapiens) (UniProt O75388) (assay: qHTS for Agonists of Human Resolvin D1 Receptor DRV1). Conditions: CHO-K1 GPR32 beta-arrestin PathHunter luminescence, 90 min; at 76.9 µM; active compounds read high; zero percent set by DMSO-only wells.
Summary of the method: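 Using DMSO wells as EC0, agonist-induced signal was taken as chemiluminescence from beta-Gal reconstituted upon beta-arrestin recruitment to GPR32 in CHO-K1 cells after 90 min compound treatment.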
Further: 0% is about no effect.

Sequence of UniProt O75388 (O75388 whole entry, looked up): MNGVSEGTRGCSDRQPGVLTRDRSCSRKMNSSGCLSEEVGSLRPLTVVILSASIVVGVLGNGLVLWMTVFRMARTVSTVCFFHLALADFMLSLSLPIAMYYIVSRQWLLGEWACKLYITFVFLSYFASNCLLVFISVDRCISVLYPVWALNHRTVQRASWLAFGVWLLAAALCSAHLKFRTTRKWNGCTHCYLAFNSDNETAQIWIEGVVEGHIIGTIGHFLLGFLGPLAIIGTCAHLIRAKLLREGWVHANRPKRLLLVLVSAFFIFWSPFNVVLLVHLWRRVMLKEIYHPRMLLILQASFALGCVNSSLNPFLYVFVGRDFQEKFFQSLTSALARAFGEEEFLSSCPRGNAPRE

activation, inactive:
Cc1ccc(CNC(=O)CCc2c(C)nc3nc(CNC(=O)OC(C)(C)C)nn3c2C)cc1 7.05%, CC(C)c1ccc(-c2nnc3n(CCc4ccccc4)c(=O)c4ccccc4n23)cc1 45.6%, Cc1cccc(NCc2nc3ccccc3n2CCOc2ccccc2C)c1 -37.9%, COc1cc(C(=O)n2nc(-c3ccco3)nc2NCc2ccc(Cl)cc2)cc(OC)c1OC -0.226%, COc1ccc(NC(=O)c2c(C)oc3ccc(O)c(CN4CCCC4)c23)cc1Cl 26.6%, COc1ccc(C(=O)NCC(c2ccc(N(C)C)cc2)N2CCCC2)c(OC)c1 (stereo not given) -8.62%, Cc1cccc(-c2nc(CSc3nncn4c3cc3oc(C)cc34)c(C)o2)c1 -16.2%, Cc1ccc2nc(-c3ccc(Cl)cc3)cc(C(=O)OCC(=O)c3ccccc3)c2c1 -0.765%, CCSc1ncc(Cl)c(C(=O)Nc2c(C(=O)Nc3cccc(C)c3)oc3ccccc23)n1 -7.39%, CCC(C(=O)NC1CCCCC1)n1c(SCc2ccc(F)cc2)nc2ccncc21 (stereo not given) -11.8%, CCc1ccc(C2Sc3ccccc3NC3=C2C(=O)c2ccccc23)cc1 (stereo not given) -58.5%, CC1CCC(NC(=O)C2(C)Cc3ccccc3C(=O)N2Cc2ccc(F)cc2)CC1 (stereo not given) -18.4%, COc1ccc(C(=O)NCCc2sc(-c3ccc(F)cc3)nc2C)cc1OC 4.51%, COc1ccc(NC(=O)c2sc3nc4c(cc3c2N)CN(Cc2ccccc2)CC4)cc1 10.3%, CCC(Cn1nnc2ccccc2c1=O)NC(=O)Nc1ccc(C)cc1C (stereo not given) -25%, COc1ccc2c(c1)cc1c(=O)n(CC(=O)NCc3ccco3)nc(C)n12 -11.3%, COc1ccccc1N(CC(=O)NCCSCc1ccccc1)S(C)(=O)=O -6.29%, CCCCc1nn2c(=O)cc(COC(=O)c3cccc(OC)c3)nc2s1 -3.74%, CCc1nnc2c(Nc3cccc(C(C)=O)c3)nc3ccccc3n12 -7.66%, COc1ccc(-c2cc(C(F)(F)F)nc(SCC(=O)NCc3ccc(OC)c(OC)c3)n2)cc1 -6.81%, COc1ccc(-c2onc(C)c2C)cc1S(=O)(=O)NCc1ccco1 -12.4%, CCc1ccc(CNC(=O)c2ccc3c(c2)nc2n3CCC(C)C2)cc1 (stereo not given) -19.2%, COc1cccc(C(=O)Nc2cccc(OCc3cc(=O)n4cc(C)ccc4n3)c2)c1 -5.78%, CCOc1ccc(C(=O)NCc2ccc3c(c2)CCN3C(=O)c2ccccc2)cc1 -35.2%, COc1ccc(NC(=O)CN2C(=O)COc3ccc(S(=O)(=O)Nc4ccccc4)cc32)cc1 -17.4%, CCOC(=O)CN1C(=O)c2ccccc2Sc2ncccc21 -6.67%, CCCCc1nn2c(=O)cc(COC(=O)COc3ccc(C)cc3)nc2s1 2.24%, COc1ccc(C)cc1NC(=O)CN(c1ccccc1)S(=O)(=O)N(C)C -11.7%, COc1ccc(/C=C\c2onc(C)c2S(=O)(=O)N2CCC(C(=O)Nc3ccc(C)cc3C)CC2)cc1 -17.4%, CCc1ccc(NC(=O)CSC2=Nc3ccccc3C3=NC(CCC(=O)NCCc4ccccc4)C(=O)N23)cc1 (stereo not given) -17.1%, CC1=C(C(=O)Nc2ccc(C)cc2C)C(c2ccc(O)cc2)n2nnnc2N1 (stereo not given) -1.97%, CCC12CN3CC(C)(CN(C1)C3c1c[nH]c3ccccc13)C2=O (stereo not given) -5.45%, CCC(=O)N1CCc2cc(S(=O)(=O)NC(CC(C)C)C(=O)Nc3cc(C)ccc3OC)ccc21 (stereo not given) -1.73%, O=C(Nc1ccc(F)cc1Cl)n1ncc2cc(Cl)ccc21 8.34%, CCCOc1ccc(C(=O)Nc2cccc(NC(=O)c3cccc(Cl)c3)c2)cc1 40%, CCS(=O)(=O)c1ncc(N(Cc2ccco2)Cc2sccc2C)c(C(=O)Nc2ccc(C)cc2C)n1 -20.4%, Cc1ccc2c(c1)c(=O)c(C(=O)c1ccncc1)cn2CC(=O)Nc1c(C)cccc1C -5.06%, Cn1cc(S(=O)(=O)N2CCCCC2)cc1C(=O)N1CCN(c2ccc(F)cc2)CC1 4.06%, Cc1cc(=O)n(CC(=O)NCCC(C)C)c2c1c(C)nn2C 29%, CC(NC(=O)CN(C)S(=O)(=O)c1ccc2c(c1)c(=O)n(C)c(=O)n2C)c1ccccc1 (stereo not given) -18.7%, Cc1oc(-c2ccc(C(=O)NCc3ccc(N(C)C)cc3)cc2)nc1COc1ccccc1 -3.3%, Cc1cc2c(=O)c(C(=O)c3ccncc3)cn(CC(=O)Nc3cccc(C)c3C)c2cc1C -6.41%, Cc1ccc(C)c(S(=O)(=O)c2cnc(SCC(=O)Nc3ccc(F)cc3F)[nH]c2=O)c1 2.74%, CCc1ccc(NC(=O)CSc2nccn2C2CCCC2)cc1 2.73%, COc1ccc(CCNC(=O)Cn2ncc3c(C)n(Cc4ccccc4F)c(C)c3c2=O)cc1OC -7.06%, COc1ccc(CCNC(=O)Cn2nc(C)n3c(cc4occc43)c2=O)cc1OC -21.9%, CCOC(=O)c1c(S(=O)(=O)N2CCCC(C(=O)N3CCN(c4ccc(F)cc4)CC3)C2)c(C)n(C)c1C (stereo not given) -0.173%, Cc1ccc(C)c(-c2csc(-c3c(N)c(C(=O)c4ccc5c(c4)OCO5)n4ccccc34)n2)c1 -13.8%, CCN(CC)CCNC(=O)C1CCCN(c2ncnc3onc(C)c23)C1 (stereo not given) 4.27%, Cc1c(C(N)=O)nnn1-c1ccc(Br)cc1 20.2%, COc1ccc(NC(c2ccc(F)cc2)c2nnc(-c3ccccc3Cl)o2)cc1Cl (stereo not given) -17.2%, Cc1ccc2nc(N(Cc3cccnc3)C(=O)C3CCCCC3)sc2c1 -0.293%, COc1ccc(Br)cc1C1CC(=O)Nc2c1c(C)nn2-c1nc(C)cc(C)n1 (stereo not given) -4.52%, CCn1cc(C(=O)OCC(=O)Nc2cc(Cl)ccc2OC)c(=O)c2ccc(C)nc21 14.4%, CCc1ccc2nc(N3CCC(C(=O)O)CC3)sc2c1 37.4%, COc1cc(CNCc2c(C(=O)O)c(C)n(Cc3cccc(Cl)c3)c2C)cc(OC)c1OC -15.9%, CCc1cccc(NC(=O)CN2C(=O)CCc3cc(S(=O)(=O)N4CCOCC4)ccc32)c1 -11.2%, COc1ccc(Br)cc1CNC(=O)C(C)n1nc(C)n2c(cc3occc32)c1=O (stereo not given) -9.96%, CCC(C(=O)N1CCN(c2cc(Cl)ccc2C)CC1)n1nc(C)n2c(cc3occc32)c1=O (stereo not given) -9.46%, CCSc1nc2n(n1)C(c1ccc(CC)cc1)C(C(=O)Nc1ccccc1OC)=C(C)N2 (stereo not given) 15.1%, Cc1c(Cl)cccc1-n1c(CCC(=O)O)ccc1-c1cccs1 -13%, CCN(CC)c1cc(C)nc2nc(-c3ccc(C)cc3)nn12 2.24%, CN1CCCN=C1/C=C/c1cccs1 -2.2%, Cc1ccc2oc(C(=O)Nc3nnc(CC(C)C)s3)cc(=O)c2c1 20.9%, COc1ccc(N2CCN(C(=O)c3cc4c(=O)n(Cc5ccccc5)ccc4nc3C)CC2)cc1 -0.997%, Cc1ccc(CN2CCSc3ccc(C(=O)Nc4ccc(F)cc4F)cc32)cc1 -31%, CCOc1ccccc1C(=O)NCc1ccc2c(c1)CCN2C(C)=O -19.8%, Cc1ccc(C2c3[nH]c4ccccc4c3CCN2C(=O)Nc2ccc(C)c(C)c2)cc1 (stereo not given) -30.2%, CCOC(=O)C(C)Sc1nnc2ccc3ccccc3n12 (stereo not given) -7.42%, Cc1ccc(NC(=O)C(=O)NCc2ccc(Cl)cc2)cc1 -7.31%, O=C(NCCc1ccc(Cl)cc1)c1ccc(CSCc2ccccc2Cl)o1 -20.4%, Cc1cccc(NC(=O)C2CCCN(S(=O)(=O)c3cccc4nonc34)C2)c1 (stereo not given) -13.9%, CC(=O)c1cccc(NC(=O)c2nc(-c3ccc(C)cc3)n3c2CCCCC3)c1 9.41%, Cc1ccc(S(=O)(=O)Nc2cccc(-c3ccc(N4CCCCC4)nn3)c2)s1 0.171%, COc1ccc(C2(CNC(=O)C(=O)Nc3cccc(C(F)(F)F)c3)CCCC2)cc1OC -15.6%, COc1cc(OC)c(NC(=O)CCn2cnc3onc(-c4ccc(F)cc4)c3c2=O)cc1Cl 13.4%, Cc1oc(-c2cccc(Cl)c2)nc1CN1CCC(C(=O)NCCCN2CCN(c3cccc(Cl)c3)CC2)CC1 40.4%, Nc1cc(=O)nc(SCC(=O)Nc2ccc(F)cc2)n1-c1ccc(Cl)cc1 -44.9%, CCOc1ccc(NC(=O)N(Cc2c[nH]c3ccccc23)C2CCCCC2)cc1 -8.32%, CCC[C@@H]1C[C@@H](C(=O)N[C@@H]([C@H]2O[C@H](SC)[C@H](O)[C@@H](O)[C@H]2O)[C@@H](C)O)N(C)C1 -4.44%, Cc1ccc(CNCc2c(C(=O)O)n(Cc3ccccc3C)c3cc(C)ccc23)cc1 -0.051%, CCCCNC(=O)c1[nH]c2ccccc2c1Sc1ccc(C)cc1 -7.6%, O=C(Nc1c(C(=O)c2ccccc2)oc2ccccc12)c1ccc(F)cc1 25.9%, CCOc1ccc(C(=O)Nc2ccc3oc(-c4cccc5ccccc45)nc3c2)cc1 -7.18%

activation, active:
Cc1cccc(NC(=O)Cn2c(=O)oc3cc(S(=O)(=O)NCc4ccccc4)ccc32)c1 65.1%
